Measurements reported in the supplement of paper PMC11417369.
± gives the standard deviation of the averaged measurements. The list shows a part of the results.

tested on: PfAP2-LT AP2 domain (GST-tagged); assay: gcPBM binding intensity (ln(normalized median fluorescence intensity)); higher = stronger DNA binding
Method in brief: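 In this array assay, P. falciparum DNA-binding domains with a GST tag, expressed in E. coli, were applied for 1 h to primer-extended double-stranded 36-bp intergenic genomic probes and negative controls on an Agilent 4 × 180k array. Bound protein was visualised with Alexa488 anti-GST antibody at 488 nm. Binding intensity is the highest Masliner-normalised natural-log median intensity across replicate spots of either probe orientation.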

| Sequence | gcPBM binding intensity (ln) |
| --- | --- |
| TAAATGGATTGTTCAGGTACACATAAATATGATATT [XGTACX_site6963] | 8.66 ± 0.45 |
| TAAAAATAATATATTTGTACATATGTGTATACATAA [XGTACX_site741] | 8.54 ± 0.4 |
| TCCTAAAAAAAAAAAAAAAATGAAAAAGGAAAAAAA [CACACA_negctrl_site1646] | 8.29 ± 0.63 |
| TATAAATACATACATACACACATATATATATATATT [CACACA_site6116] | 9.32 ± 0.25 |
| CAAGCACAGAAACACACACACACACCGACACAGACA [CACACA_site4359] | 10.1 ± 0.15 |
| AAAAAAAAAAAAAAAAGTACTAAATGTAAAAGAATA [XGTACX_site2164] | 8.73 ± 0.77 |
| AATGTATTAAAATTACGTACATATGCACATTTTATA [XGTACX_site5046] | 8.76 ± 0.44 |
| TTTTTTATTTTGTGCACACACATAAAAATATAAATA [CACACA_site6497] | 8.94 ± 0.35 |
| TACTCTTTCCAGAAGTGTACATAGAAATAATTACAT [XGTACX_site2668] | 8.57 ± 0.45 |
| AAAAAAAAAAAAAAAAAAATAAAAAATAAATAAATA [CACACA_negctrl_site1498] | 8.33 ± 0.71 |
| TATATATGTATGTATGCATGCCCTTTTTTAAAAAAA [TGCATGCA_site434] | 8.77 ± 0.43 |
| AAGAAAAAACAAACATGTACACATAATTTAGTTTTT [XGTACX_site3121] | 8.81 ± 0.48 |
| TTTTTTTTTTTTTTTTGTACATAATTATATATTTAC [XGTACX_site7540] | 8.66 ± 0.38 |
| TAGTATTATTATTATGCACACAAAAATATTTATACA [CACACA_site9219] | 8.81 ± 0.45 |
| AGCATTTCTTTTACATGTACATAATATTTTTAATAA [XGTACX_site1968] | 8.8 ± 0.41 |
| TTTTTTTTTACTTGTTGTACTTTTTCAAGGTATTGT [XGTACX_site7778] | 9.01 ± 0.5 |
| ATATAAAAAAATTGCACACATAAATAAATACAGATA [CACACA_site4806] | 9.13 ± 0.42 |
| TAAAAATTGAAGCACACACACAAAAGAAATACAATA [CACACA_site1113] | 9.71 ± 0.37 |
| ATATTTACAAGTAATAGTACAGTTAATTATATAAAA [XGTACX_site4856] | 8.55 ± 0.52 |
| ATTATATAGCTAAAAAAAATAAATTAAAAATATTAA [TGCATGCA_negctrl_site505] | 8.37 ± 0.45 |
| AAGAATGTTATTAGTACACACAATTATTATAGAAAT [CACACA_site7714] | 8.99 ± 0.42 |
| AATGTACAAATACGTACACACATATTTATATTTATA [CACACA_site6833] | 8.98 ± 0.43 |
| TATATATATATATATACATGCATACATATACATACA [TGCATGCA_site897] | 9.65 ± 0.16 |

| Sequence | gcPBM binding intensity (ln) |
| --- | --- |
| ATATATATATATAATAAACACACAAATAGATATAAC [CACACA_site9234] | 9.26 ± 0.37 |
| CTACCTTTAATATATACACACACATAAAAAAAATAT [CACACA_site8548] | 9.38 ± 0.3 |
| AGATAAGATATATACACACACATAAATACGTACAAA [CACACA_site6639] | 9.62 ± 0.39 |
| AATGTACCCACACCCACACACAAACAAATATATATA [CACACA_site2751] | 9.74 ± 0.29 |
| AGATTAAAATATATACGTACATATTATTAATTAATA [XGTACX_site3487] | 8.6 ± 0.45 |
| ATAGGATGCATATGAGTGCATTCTGTGTTGTTATAA | 8.77 ± 0.43 |
| AAACAATATTCTCAAGTGCAAAAAGAAAAAAGAAAT | 9.01 ± 0.5 |
| TACTTGTTATTAACATGTACAAAAAAAAAAAAAATT [XGTACX_site1338] | 8.46 ± 0.42 |
| TTTATTTTTATTTAAAGTACATATCCATTTATTCCT [XGTACX_site1914] | 8.49 ± 0.53 |
| ACCCATATAATATATACACACATATATATATATATA [CACACA_site4731] | 9.855 ± 0.035 |
| ATTTTCTTATATATATTTTGTATATATTTTGTACAT [CACACA_negctrl_site1496] | 9.21 ± 0.49 |
| AAAAAAAAAATTAAATGTACACACACCTTAAACAAT [XGTACX_site3848] | 9.3 ± 0.28 |
| TAATGTATTATATTTTGTTTTCTTCCACCAAAAAAA [XGTACX_negctrl_site64] | 8.22 ± 0.43 |
| AATTCGTACCTCATTTGTACATATATATATATATAT [XGTACX_site5513] | 9.56 ± 0.23 |
| TTTTTTATAGTACATTACCAAAAAAAAAAAAAAAAA [GTGCAC_negctrl_site549] | 7.97 ± 0.51 |
| CATACACCCATACATACACACATACAGATATATATA [CACACA_site5123] | 9.29 ± 0.33 |
| ATATATTGCACTTTTTGTACATAATGAAAAATTTTT [XGTACX_site8223] | 8.62 ± 0.43 |
| TACATATTGATATATACACACAAAAAAATAAATTCT [CACACA_site6198] | 8.97 ± 0.37 |
| ACCTTAATAAAAAAAAGTACAAACATGTTCAAATTG [XGTACX_site1556] | 8.73 ± 0.5 |
| ATCTCTGTATGTTAGACACACATATTTTAATATGTT [CACACA_site4244] | 9.02 ± 0.42 |
| TAAAATTTGTACATAGTGCAATTTTTTTTTTTTTTT | 8.4 ± 0.35 |
| TCACCATATAAACGTGCACACTACAAAAATATATAA [CACACA_site5413] | 8.88 ± 0.45 |
| CTTTTATTTTATTTTAGTACGCAACATTCTCTATAT [XGTACX_site7279] | 8.86 ± 0.54 |

| Sequence | gcPBM binding intensity (ln) |
| --- | --- |
| TATTTATTTAAAAATTGTACGTAGGATTATACACTT [XGTACX_site286] | 8.58 ± 0.51 |
| ATATAAATATTATAATGTACATATAATATATTTATT [XGTACX_site5212] | 8.6 ± 0.37 |
| AGTGATTATTAATAATGTACATATCTATAAATATAT [XGTACX_site4734] | 8.7 ± 0.49 |
| TTTTTTTTTTTTTTCTTACAATTTATTGAACAAATG [XGTACX_negctrl_site515] | 8.34 ± 0.4 |
| TAGTTTTTTATATATTGTACAAATAATATATGATAT [XGTACX_site4220] | 8.7 ± 0.39 |
| AATAAATAAATATATATATATATATATATATATATA [CACACA_negctrl_site365] | 9.67 ± 0.28 |
| TATCAAAATTGTAATTGTACTTGTAAGTGGATATAT [XGTACX_site5949] | 8.66 ± 0.42 |
| ACAATTTACACTTAAACACACAAAAAAAAGTTATAT [CACACA_site7056] | 8.9 ± 0.38 |
| TATATATTTCATCCTTGTACACATTTGTGTTTACAT [XGTACX_site1132] | 9.23 ± 0.52 |
| GTATTGCATGAGGACACACACAAAAAAAATATAGAT [CACACA_site6500] | 9.45 ± 0.47 |
| TTATAAAATATTTATGCATGTGAAGAATATTATAAA [TGCATGCA_site1047] | 8.48 ± 0.35 |
| GAAAAAAGTATCAAGGTGCGTATATACATCAAAATA | 9.02 ± 0.52 |
| AATAGTCGGGTGCATACACACCTTAAATATAATATA [CACACA_site8271] | 8.77 ± 0.55 |
| TTCTTACATGAGTGTACACACTTTTTTTCAGAAAAT [CACACA_site4215] | 8.88 ± 0.34 |
| GGTGGGGAGGAGTAATGTACAAATTAACATATTATG [XGTACX_site6666] | 9.25 ± 0.13 |
| CAAAACAAAACGTATGCACACAATTAAAATATTAAA [CACACA_site5815] | 9.09 ± 0.4 |
| AAATGTTGAGCAGTACAAAAAAAAAAAAAAAAAAAA [GTGCAC_negctrl_site518] | 8.55 ± 0.55 |
| CATTTATATAAAAGAACACACATATAAAATATTATT [CACACA_site3601] | 8.82 ± 0.43 |
| TTTTTTTTTTAATTGGGTACATATATAATTTAAGAA [XGTACX_site2732] | 8.1 ± 0.2 |
| AAGATACCAATGAAATGTACATATATATAAATATAA [XGTACX_site2135] | 8.9 ± 0.36 |
| TATATATTATAAAATTGTACATATATTAAATTTTTT [XGTACX_site5852] | 8.32 ± 0.46 |
| TAACTAATATATAAAACACACATCATAAAAATATAA [CACACA_site768] | 8.97 ± 0.45 |
| TTTTGTTGAAAAGTAAGATATTCCAACATGTTTTTA [CACACA_negctrl_site391] | 8.52 ± 0.43 |

| Sequence | gcPBM binding intensity (ln) |
| --- | --- |
| AGCAAAACATAAAATAGTACACATTTAACAAAAAAA [XGTACX_site2921] | 8.88 ± 0.57 |
| AAAAGAACAATGAAGTGTACTAATAATTATTTATGT [XGTACX_site6649] | 8.88 ± 0.36 |
| TTTTATCATCTTTTTACATTATGTATAAATATTTTC [CACACA_negctrl_site206] | 8.74 ± 0.52 |
| ATATAATATATTTTTGAACACACAATATATATATAT [CACACA_site9368] | 8.79 ± 0.3 |
| ACACATAAATGAATAAATAAATAAATATAAATATAA [CACACA_negctrl_site1784] | 8.89 ± 0.47 |
| ATATCATTTTCCTGCACACATAAATTTATATAATAT [CACACA_site1048] | 9.21 ± 0.32 |
| AAAATAAAAGAATAAAAATATGAAACTTTTTTAAAA [GTGCAC_negctrl_site348] | 8.31 ± 0.61 |
| AACGTGTGGAGAATTATAAATGAGTAAAAAATATAT [XGTACX_negctrl_site562] | 9.04 ± 0.5 |
| GGGGGGAGGGTGAATACACACGTAATAATCATAAAC [CACACA_site8502] | 9.93 ± 0.28 |
| ATTAAATAAAAAAACACACACATATATACCTATATA [CACACA_site5837] | 9.41 ± 0.3 |
| AATAAAACATAATAATGTACTCAAAGGTTTAACTTG [XGTACX_site4711] | 8.71 ± 0.49 |
| CAAAACATTTTATCTACACACATATATAAATAAATA [CACACA_site3220] | 8.88 ± 0.38 |
| AAAAATGAAAGTAAGACATGCATGGAATTTTTTTTA [TGCATGCA_site347] | 8.95 ± 0.36 |
| TTTTTTTTTTATGAAAGTACATATGAAAAATACGAA [XGTACX_site3451] | 8.18 ± 0.44 |
| ATATATGTGTATGTATGTACTTATATTTTTTTTTAT [XGTACX_site1733] | 8.88 ± 0.49 |
| GCAAATCAATTTTTTTTTAAAACTCATTTTTTCGTT [CACACA_negctrl_site1136] | 8.69 ± 0.52 |
| TCCGTTATATATGTGTGTACATATAATATATCCTCA [XGTACX_site2588] | 9.11 ± 0.4 |
| TTCATACATATTTGAAGTACATTTAAAAATGTCCTT [XGTACX_site747] | 8.55 ± 0.53 |
| TCCAATATATTTATGAGTACTTATAAATTATACGTT [XGTACX_site742] | 8.81 ± 0.41 |
| GAAGTAATTTCATATACACACATATACATACATACA [CACACA_site6753] | 9.13 ± 0.38 |
